Laboratory results: paper PMC4336329 (PLoS ONE, 2015)
The whole screen tested about 310,000 compounds, of which about 14,000 (4.5%) showed an effect of 50% or more. The effect is printed as a negative number. The list shows a part of the results.

These compounds were tested against human ether-à-go-go-related gene (hERG) potassium channel (human, UniProt Q12809) (assay: primary screen, population patch clamp on CHO cells stably expressing hERG).
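Further: peak tail current of the secondary pulse compared with the same well before compound.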

human ether-à-go-go-related gene (hERG) potassium channel, sequence (Q12809 whole entry, looked up): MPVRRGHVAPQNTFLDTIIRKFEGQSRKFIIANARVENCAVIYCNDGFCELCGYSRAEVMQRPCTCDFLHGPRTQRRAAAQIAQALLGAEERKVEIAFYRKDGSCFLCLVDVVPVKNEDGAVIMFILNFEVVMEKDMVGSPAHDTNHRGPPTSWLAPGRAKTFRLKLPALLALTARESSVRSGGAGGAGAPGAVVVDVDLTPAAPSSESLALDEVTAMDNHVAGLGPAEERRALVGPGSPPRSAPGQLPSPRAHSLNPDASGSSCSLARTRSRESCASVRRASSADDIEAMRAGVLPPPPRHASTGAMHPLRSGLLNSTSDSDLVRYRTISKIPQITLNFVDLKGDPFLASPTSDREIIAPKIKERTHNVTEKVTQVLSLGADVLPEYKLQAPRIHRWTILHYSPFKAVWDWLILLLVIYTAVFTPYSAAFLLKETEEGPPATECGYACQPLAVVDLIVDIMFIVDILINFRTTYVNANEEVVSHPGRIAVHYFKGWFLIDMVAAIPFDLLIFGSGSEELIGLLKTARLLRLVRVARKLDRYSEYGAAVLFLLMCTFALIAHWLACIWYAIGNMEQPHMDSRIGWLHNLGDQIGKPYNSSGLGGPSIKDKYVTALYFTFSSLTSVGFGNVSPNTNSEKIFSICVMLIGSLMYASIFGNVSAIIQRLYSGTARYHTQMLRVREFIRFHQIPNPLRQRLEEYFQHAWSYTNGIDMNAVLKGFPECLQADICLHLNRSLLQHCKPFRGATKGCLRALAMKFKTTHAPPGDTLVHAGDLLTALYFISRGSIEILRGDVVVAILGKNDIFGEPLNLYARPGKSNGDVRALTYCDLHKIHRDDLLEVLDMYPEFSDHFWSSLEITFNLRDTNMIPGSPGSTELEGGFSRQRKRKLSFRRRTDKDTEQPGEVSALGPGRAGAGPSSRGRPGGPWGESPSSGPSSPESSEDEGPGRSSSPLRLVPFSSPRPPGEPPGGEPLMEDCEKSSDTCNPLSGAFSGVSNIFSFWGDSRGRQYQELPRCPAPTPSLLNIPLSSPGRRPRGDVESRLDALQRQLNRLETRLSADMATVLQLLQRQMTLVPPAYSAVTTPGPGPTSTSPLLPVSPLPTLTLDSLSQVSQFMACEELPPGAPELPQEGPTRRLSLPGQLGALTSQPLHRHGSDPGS

| Compound | hERG current change (%, negative = inhibition) at 10uM [%] |
| --- | --- |
| COc1ccc(S(=O)(=O)c2ccc(O)cc2)cc1 | -24.5 |
| N#Cc1ccc2[nH]c(CO)c(-c3ccccc3)c2c1 | -34.2 |
| C=CCn1c(O)c(Cc2ccc(OCC)cc2)c(=O)[nH]c1=O | 15.4 |
| Cc1cc(C)n(CC(O)COc2ccc(Cl)cc2Cl)n1 (stereo not drawn) | -6.86 |
| O=C(c1cccnc1Cl)N(Cc1ccccc1)Cc1ccccc1 | -17.7 |
| CCOC(=O)c1c(C)n(C)c2ccc(OC(=O)c3ccc(N4C(=O)CCC4=O)cc3)cc12 | 0.0761 |
| c1ccc(C2=NN(c3ccccc3)C(c3ccco3)C2)cc1 (stereo not drawn) | 13.1 |
| O=C(Nc1cccnc1)C1CCCN(c2ncnc3c2nc2n3CCCCC2)C1 (stereo not drawn) | -36 |
| CCOc1ccc(OCCC(=O)N(CCC2=CCCCC2)c2c(N)n(Cc3ccccc3)c(=O)[nH]c2=O)cc1 | 5.08 |
| Cc1ccccc1N=C1SCC(=O)N1Cc1ccccc1 | -6.74 |
| O=C(CSc1nc2ccccc2o1)N1c2ccccc2Sc2ccc(C(F)(F)F)cc21 | 12.6 |
| CCc1nc(SCc2ccc(F)cc2)n[nH]1 | 8.02 |
| COc1ccc2[nH]c(=O)c(-c3nnn(-c4ccccc4)n3)cc2c1 | -1.01 |
| O=C(COc1ccc(Cl)cc1)NNC(=S)NCc1ccccc1 | 19.4 |
| O=C(COc1cccc(-n2cnnn2)c1)Nc1ccc([N+](=O)[O-])cc1 | -43.6 |
| COc1ccc(N(CC(=O)N2CCC(C(N)=O)CC2)S(=O)(=O)c2ccccc2)cc1 | 17.5 |
| CCc1cc2c(N3CCN(C(=O)c4ccco4)CC3)ncnc2s1 | -77.7 |
| C1CCN(c2nc(N3CCCCC3)nc(N3CCNCC3)n2)CC1 | -7.81 |
| CC(=O)N(c1ccc(Cl)cc1)c1nc(C)cc(C)c1C#N | 3.5 |
| O=C(c1ccccc1S(=O)(=O)NCc1ccccc1)N1CCCCC1 | -10.2 |
| O=C(C1CC(=O)N(c2ccc(Br)cc2)C1)N1CCCC1 (stereo not drawn) | -9.86 |

| Compound | hERG current change (%, negative = inhibition) at 10uM [%] |
| --- | --- |
| NC(=O)CSc1nnc(NC(=O)c2ccc(S(=O)(=O)N3CCOCC3)cc2)s1 | -9.18 |
| O=C(NC1CC1)c1cc(-c2ccccn2)nc2ccccc12 | -29.5 |
| CCN(Cc1nc(-c2ccc(OC)cc2)no1)C(=O)c1ccoc1C | 5.13 |
| Cc1nn(Cc2c(Cl)cccc2Cl)c(C)c1NC(=O)CCCn1nc([N+](=O)[O-])c(Cl)c1C | -19.6 |
| CC1CCC(N(C(=O)c2csnn2)C(C(=O)NC(C)(C)C)c2cccnc2)CC1 (stereo not drawn) | -20.3 |
| Cc1ccc(S(=O)(=O)N2CCN(C(=O)CSC(=S)N3CCCC3)CC2)c(C)c1 | -15.1 |
| CCCCc1nc2cc(C(=O)N(C)CCc3cn[nH]c3)ccc2o1 | 5.84 |
| CCOc1ccc(C(=O)O/N=C(\N)c2ccc([N+](=O)[O-])cc2)cc1OCC | -6.93 |
| CS(=O)(=O)N1CCN(c2nc3ccccc3s2)CC1 | 0.669 |
| CC(C)CCNc1nc(N)c([N+](=O)[O-])c(NC2CCCCC2)n1 | 16.2 |
| Cc1sc2nc(SCC(=O)NCc3ccco3)n(C)c(=O)c2c1C | -16.3 |
| CC(C)CN(CC(C)C)C(=O)c1cccc(S(=O)(=O)N2CCc3ccccc32)c1 | -24.9 |
| COc1ccc(C(NC(C)=O)c2nccc3cc(OC)c(OC)cc23)cc1OC (stereo not drawn) | 15.1 |
| O=C(Cc1ccc(Cl)cc1)Nc1ccc(Br)cc1 | 3.47 |
| O=C(COc1ccc(NC(=O)c2ccccc2[N+](=O)[O-])cc1)c1ccc(F)cc1 | 2.93 |
| Cc1ccc(C(=O)OCC(=O)NC(=O)c2cccn2C)cc1[N+](=O)[O-] | 8.96 |
| CCCn1c(=NC(C)=O)c(C(=O)OCC)cc2c(=O)n3ccccc3nc21 | -9.98 |
| Cc1[nH]c2ccccc2c1C(=O)NS(=O)(=O)Nc1ccc(Cl)cc1 | 21.1 |
| O=C(Nc1ccc(C(=O)NCCCN2CCN(c3ccccc3)CC2)cc1)C1=CSCCO1 | -38.2 |
| CC(C)(C)C(=O)NC(=S)Nc1ccc(Cc2ccncc2)cc1 | -45.3 |
| C#CCN1C(=O)C2C(C(=O)NC)C3C=CC2(O3)C1C(=O)NCc1ccc(OC)cc1 (stereo not drawn) | 8.12 |

| Compound | hERG current change (%, negative = inhibition) at 10uM [%] |
| --- | --- |
| COc1ccc(-c2cc3c(=O)n(CC(=O)NCc4ccc(C)cc4)ncn3n2)cc1 | 16.8 |
| N#Cc1c(Sc2ncc(C(F)(F)F)cc2Cl)nsc1C/C=N\OCc1c(F)cccc1Cl | 6.29 |
| CC(O)[C@H]1CC[C@H]2[C@@H]3CC[C@H]4C[C@H](O)CC[C@]4(C)[C@H]3[C@H](O)C[C@]12C (stereo partly drawn) | -0.248 |
| CCCn1nnnc1NCc1cccc(Cl)c1 | 14 |
| Cc1ccc(S(=O)(=O)N2CCCCC2C(=O)Nc2nncs2)cc1 (stereo not drawn) | -1.45 |
| COc1oc(-c2ccc(Cl)cc2)nc1C(F)(F)F | 11.6 |
| Cc1ccc(NC(=O)CN2C(=O)S/C(=C/c3ccncc3)C2=O)cc1 | 5.97 |
| O=C(CCC(=O)OCc1ccc([N+](=O)[O-])cc1Cl)Nc1ccccc1 | 7.09 |
| O=C(c1ccc(Cl)c(S(=O)(=O)N2CCOCC2)c1)N1CCN(c2ccccn2)CC1 | -44.2 |
| Cc1ccc(N(CC(=O)NC(C)C)C(=O)CCC(=O)Nc2nccs2)c(C)c1 | 13.8 |
| O=S(=O)(c1ccc(Cl)nc1)N1CCc2ccccc21 | -2.39 |
| CNC(=O)c1cc(C(=O)c2ccc(C(F)(F)F)cc2)c[nH]1 | 31.8 |
| Nc1ncc(-n2cncn2)c(-c2ccc(Cl)cc2)n1 | 8.84 |
| Cc1cccc(CN2CCC(C(=O)Nc3ccc(-n4nc(C)cc4C)cc3)CC2)n1 | -25.2 |
| S=c1[nH]nc(-c2ccccn2)n1/N=C/c1cccc(Cl)c1 | 3.31 |
| O=C(NCCCn1cccn1)C1CCC(=O)N(Cc2ccccc2F)C1 (stereo not drawn) | 18 |
| O=C(Nc1ccc(S(=O)(=O)NCc2ccccc2)cc1)c1ccc(Br)o1 | -10.9 |
| O=C(Cc1ccccc1F)NC1CCSc2ccccc21 (stereo not drawn) | -13 |
| COc1cccc2cc(-c3nnc(-c4ccccc4)o3)c(=O)oc12 | 11.9 |
| COc1ccc(/C=N/NC(=O)c2cccc(Br)c2)cc1Cn1cc(Cl)cn1 | 8.83 |
| CCN=C1SCC(=O)N1c1ccc(OC)cc1 | 11.5 |

| Compound | hERG current change (%, negative = inhibition) at 10uM [%] |
| --- | --- |
| COc1cccc(OCc2nc(-c3ccc(Br)o3)no2)c1 | -10.3 |
| COc1ccccc1CN1C(=O)CCC1(C)C(=O)NCc1cccnc1 (stereo not drawn) | -3.78 |
| O=C(Nc1cccc(S(=O)(=O)N2CCCCC2)c1)C1CCC1 | 3.43 |
| COc1cc(NC(=O)Cc2cccc3ccccc23)c(C(=O)O)cc1OC | 9.74 |
| O=C(CN(Cc1ccccc1)S(=O)(=O)c1ccccc1)N/N=C/c1ccc2c(c1)OCO2 | 8.28 |
| O=C(CN(C(=O)c1ccccc1)N1C(=O)CCC1=O)c1cccs1 | 6.91 |
| Cc1c(Cl)cccc1NC(=O)CSc1ccc(-c2cccnc2)nn1 | 1.36 |
| CCOC(=O)c1sc2nc(-c3ccco3)c3c(c2c1N)CC(C)(C)OC3 | 2.85 |
| C[C@H]1O[C@@H](O[C@H]2[C@@H](O)C[C@H](O[C@H]3[C@@H](O)C[C@H](O[C@H]4CC[C@@]5(C)[C@H](CC[C@@H]6[C@@H]5C[C@@H](O)[C@]5(C)[C@@H](C7=CC(=O)OC7)CC[C@]65O)C4)O[C@@H]3C)O[C@@H]2C)C[C@H](O)[C@@H]1O | 10.2 |
| Cc1cc(C=C2C(=O)c3ccccc3C2=O)c(C)n1-c1cccc(C(=O)O)c1 | 4.95 |
| CC1(C)CC(=O)C(C(=S)Nc2ccc(F)cc2)=C(NCCN2CCOCC2)C1 | -7.9 |
| Cc1ccc(SCCNC(=O)c2ccccc2C)cc1 | 1.07 |
| O=C(c1cnn(C(=O)c2cccc(S(=O)(=O)N3CCOCC3)c2)c1)c1ccccc1O | 0.84 |
| COc1cccc(-n2c(SCC(=O)NCc3ccco3)nnc2-c2c[nH]c3ccccc23)c1 | -37.8 |
| NS(=O)(=O)c1ccc(Nc2c([N+](=O)[O-])cncc2[N+](=O)[O-])cc1 | -0.884 |
| NC(=O)C1CCN(C(=O)Cc2ccc(-c3ccccc3)cc2)CC1 | 1.65 |
| Cc1ccc2nc(Nc3ccc4[nH]c(=O)[nH]c4c3)c(-n3nc(C)cc3C)nc2c1 | -9.13 |
| CN(C(=O)c1ccccc1C(=O)OCC(=O)c1ccccc1)c1ccccc1 | -12.9 |
| O=S(=O)(c1ccc(Cl)cc1)c1ccc(Cl)cc1 | 13.3 |
| CCOC(=O)N1CCN(S(=O)(=O)N2CCCC(C(=O)NCCc3ccccc3)C2)CC1 (stereo not drawn) | -14.9 |
| O=S(=O)(c1ccc(-n2cnnn2)cc1)N1CCN(c2ccccc2F)CC1 | -3.2 |
